#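 All cell lines were grown in 96-well plates and treated with compound for 48 hours. GI50 is the concentration that inhibits growth by half.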 For part of its entries the source gives two or more results. The other results are left out here. The source may hold further records. For part of these data: A record mostly stands for its own series of concentrations, not given here; a value can be the end of its range.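 At the TGI there is no net growth.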 For part of these data: Values that stand side by side are repeats (runs, samples, wells, individuals or studies). Records carry a tag for their origin. Letters hold for one entry only.
# What was measured:
# Assay in all cases: DTP human tumour cell line panel, 48 h
# HCT-15 colon = test system: HCT-15 colon
# KM12 colon = test system: KM12 colon
# MCF7 breast = test system: MCF7 breast
# PC-3 prostate = test system: PC-3 prostate
# RPMI-8226 leukemia = test system: RPMI-8226 leukemia
# SF-295 CNS = test system: SF-295 CNS
# SNB-75 CNS = test system: SNB-75 CNS
# SR leukemia = test system: SR leukemia
# SW-620 colon = test system: SW-620 colon
# UACC-62 melanoma = test system: UACC-62 melanoma
# 786-0 renal = test system: 786-0 renal
# A498 renal = test system: A498 renal
# A549 NSCLC = test system: A549 NSCLC
# ACHN renal = test system: ACHN renal
# CAKI-1 renal = test system: CAKI-1 renal
# CCRF-CEM leukemia = test system: CCRF-CEM leukemia
# COLO 205 colon = test system: COLO 205 colon
# DLD-1 colon = test system: DLD-1 colon
# DMS 114 small cell lung = test system: DMS 114 small cell lung
# DMS 273 small cell lung = test system: DMS 273 small cell lung
# EKVX NSCLC = test system: EKVX NSCLC
# HCC-2998 colon = test system: HCC-2998 colon
# HCT-116 colon = test system: HCT-116 colon
# HL-60(TB) leukemia = test system: HL-60(TB) leukemia
# HOP-62 NSCLC = test system: HOP-62 NSCLC
# HOP-92 NSCLC = test system: HOP-92 NSCLC
# HT29 colon = test system: HT29 colon
# IGROV1 ovarian = test system: IGROV1 ovarian
# K-562 leukemia = test system: K-562 leukemia
# LOX IMVI melanoma = test system: LOX IMVI melanoma
# LXFL 529 NSCLC = test system: LXFL 529 NSCLC
# M14 melanoma = test system: M14 melanoma
# M19-MEL melanoma = test system: M19-MEL melanoma
# MALME-3M melanoma = test system: MALME-3M melanoma
# MOLT-4 leukemia = test system: MOLT-4 leukemia
# NCI-H226 lung = test system: NCI-H226 lung
# NCI-H23 lung = test system: NCI-H23 lung
# NCI-H460 lung = test system: NCI-H460 lung
# OVCAR-3 ovarian = test system: OVCAR-3 ovarian
# OVCAR-4 ovarian = test system: OVCAR-4 ovarian
# OVCAR-5 ovarian = test system: OVCAR-5 ovarian
# OVCAR-8 ovarian = test system: OVCAR-8 ovarian
# RXF 393 renal = test system: RXF 393 renal
# RXF-631 renal = test system: RXF-631 renal
# SF-268 CNS = test system: SF-268 CNS
# SK-MEL-2 melanoma = test system: SK-MEL-2 melanoma
# SK-MEL-28 melanoma = test system: SK-MEL-28 melanoma
# SN12C renal = test system: SN12C renal
# SNB-19 CNS = test system: SNB-19 CNS
# TK-10 renal = test system: TK-10 renal
# U251 CNS = test system: U251 CNS
# UACC-257 melanoma = test system: UACC-257 melanoma
# UO-31 renal = test system: UO-31 renal
# XF 498 CNS = test system: XF 498 CNS
smiles,measurement,setting,value
CC[C@H](C)[C@H](NC(=O)[C@H]1CCCCN1C)C(=O)N(C)[C@H](C[C@@H](OC(C)=O)c1nc(C(=O)N[C@@H](Cc2ccccc2)C[C@H](C)C(=O)OC)cs1)C(C)C,TGI,HCT-15 colon,27.5 nM and > 25 µM
same,GI50,KM12 colon,0.158 nM and 2.5 nM
same,GI50,MCF7 breast,0.0433 nM and 2.5 nM
same,GI50,PC-3 prostate,0.162 nM and 2.5 nM
same,GI50,RPMI-8226 leukemia,0.226 nM and 2.5 nM
same,GI50,SF-295 CNS,0.219 nM and 2.5 nM
same,TGI,SNB-75 CNS,70.6 nM and 21.5 µM
same,GI50,SR leukemia,0.0785 nM and 2.5 nM
same,GI50,SW-620 colon,0.225 nM and 2.5 nM
same,GI50,UACC-62 melanoma,0.0777 nM and 2.5 nM
C=CC1=CC(C)C[C@]1(O)C(=O)OC (some centres undefined),TGI,786-0 renal,< 10 nM and > 100 µM
same,TGI,A498 renal,< 10 nM and > 100 µM
same,TGI,A549 NSCLC,< 10 nM and > 100 µM
same,TGI,ACHN renal,< 10 nM and > 100 µM
same,TGI,CAKI-1 renal,< 10 nM and > 100 µM
same,TGI,CCRF-CEM leukemia,< 10 nM and > 100 µM
same,TGI,COLO 205 colon,< 10 nM and > 100 µM
same,TGI,DLD-1 colon,< 10 nM and > 100 µM
same,TGI,DMS 114 small cell lung,< 10 nM and > 100 µM
same,TGI,DMS 273 small cell lung,< 10 nM and > 100 µM
same,TGI,EKVX NSCLC,< 10 nM and > 100 µM
same,TGI,HCC-2998 colon,< 10 nM and > 100 µM
same,TGI,HCT-116 colon,< 10 nM and > 100 µM
same,TGI,HL-60(TB) leukemia,< 10 nM and > 100 µM
same,TGI,HOP-62 NSCLC,< 10 nM and > 100 µM
same,TGI,HOP-92 NSCLC,< 10 nM and > 100 µM
same,TGI,HT29 colon,< 10 nM and > 100 µM
same,TGI,IGROV1 ovarian,< 10 nM and > 100 µM
same,TGI,K-562 leukemia,< 10 nM and > 100 µM
same,TGI,KM12 colon,< 10 nM and > 100 µM
same,TGI,LOX IMVI melanoma,< 10 nM and > 100 µM
same,TGI,LXFL 529 NSCLC,< 10 nM and > 100 µM
same,TGI,M14 melanoma,< 10 nM and > 100 µM
same,TGI,M19-MEL melanoma,< 10 nM and > 100 µM
same,TGI,MALME-3M melanoma,< 10 nM and > 100 µM
same,TGI,MOLT-4 leukemia,< 10 nM and > 100 µM
same,TGI,NCI-H226 lung,< 10 nM and > 100 µM
same,TGI,NCI-H23 lung,< 10 nM and > 100 µM
same,TGI,NCI-H460 lung,< 10 nM and > 100 µM
same,TGI,OVCAR-3 ovarian,< 10 nM and > 100 µM
same,TGI,OVCAR-4 ovarian,< 10 nM and > 100 µM
same,TGI,OVCAR-5 ovarian,< 10 nM and > 100 µM
same,TGI,OVCAR-8 ovarian,< 10 nM and > 100 µM
same,TGI,RXF 393 renal,< 10 nM and > 100 µM
same,TGI,RXF-631 renal,< 10 nM and > 100 µM
same,TGI,SF-268 CNS,< 10 nM and > 100 µM
same,TGI,SF-295 CNS,< 10 nM and > 100 µM
same,TGI,SK-MEL-2 melanoma,< 10 nM and > 100 µM
same,TGI,SK-MEL-28 melanoma,< 10 nM and > 100 µM
same,TGI,SN12C renal,< 10 nM and > 100 µM
same,TGI,SNB-19 CNS,< 10 nM and > 100 µM
same,TGI,SNB-75 CNS,< 10 nM and > 100 µM
same,TGI,SW-620 colon,< 10 nM and > 100 µM
same,TGI,TK-10 renal,< 10 nM and > 100 µM
same,TGI,U251 CNS,< 10 nM and > 100 µM
same,TGI,UACC-257 melanoma,< 10 nM and > 100 µM
same,TGI,UACC-62 melanoma,< 10 nM and > 100 µM
same,TGI,UO-31 renal,< 10 nM and > 100 µM
same,TGI,XF 498 CNS,< 10 nM and > 100 µM
CC[C@@]1(O)C(=O)OCc2c1cc1n(c2=O)Cc2cc3c(N)cccc3nc2-1,TGI,CCRF-CEM leukemia,5.03 nM and 208 nM
same,TGI,SR leukemia,11.9 nM and > 4.84 µM
Cc1cc(NC(=O)NC(=O)c2ccccc2N(C)C)ccc1Oc1ncc(Br)cn1,TGI,COLO 205 colon,1.47 µM and 33.1 µM
same,TGI,DMS 114 small cell lung,654 nM and > 100 µM
same,TGI,SR leukemia,858 nM and 19.2 µM
same,TGI,XF 498 CNS,2.06 µM and > 100 µM
CC(C)(C)CC(C)(C)c1ccc(OCCOCC[N+](C)(C)Cc2ccccc2)cc1,TGI,A498 renal,49.2 µM [sample A] and 4.12 µM [sample B]
same,TGI,SR leukemia,4.36 µM [sample A] and > 100 µM [sample B]
Cc1ccc(/C=C2\CNC/C(=C\c3ccc(C)cc3)C2=O)cc1,TGI,OVCAR-3 ovarian,4.56 µM and > 100 µM
same,TGI,SK-MEL-2 melanoma,3.74 µM and > 62.4 µM

# From PubChem BioAssay (NCI)
